The values below come from article PMC6919601, “Identification of Plasmodium dipeptidyl aminopeptidase allosteric inhibitors by high throughput screening” (PLoS ONE, 2019).

Among all 110,000 compounds or so, about 230 (0.21%) showed an effect of 50% or more. The list shows a part of the results.
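Note: 30 min substrate incubation versus DMSO and 10 µM JCP410 controls.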

The target in this test is DPAP1 (Plasmodium falciparum, UniProt Q8IIJ9). Description: primary screen, percent inhibition; read by cleavage of a fluorogenic dipeptide substrate; higher = more effect of the substance. Set-up: species or system P. falciparum D10 trophozoite lysates; single well.
DPAP1, sequence (Q8IIJ9 whole entry, looked up): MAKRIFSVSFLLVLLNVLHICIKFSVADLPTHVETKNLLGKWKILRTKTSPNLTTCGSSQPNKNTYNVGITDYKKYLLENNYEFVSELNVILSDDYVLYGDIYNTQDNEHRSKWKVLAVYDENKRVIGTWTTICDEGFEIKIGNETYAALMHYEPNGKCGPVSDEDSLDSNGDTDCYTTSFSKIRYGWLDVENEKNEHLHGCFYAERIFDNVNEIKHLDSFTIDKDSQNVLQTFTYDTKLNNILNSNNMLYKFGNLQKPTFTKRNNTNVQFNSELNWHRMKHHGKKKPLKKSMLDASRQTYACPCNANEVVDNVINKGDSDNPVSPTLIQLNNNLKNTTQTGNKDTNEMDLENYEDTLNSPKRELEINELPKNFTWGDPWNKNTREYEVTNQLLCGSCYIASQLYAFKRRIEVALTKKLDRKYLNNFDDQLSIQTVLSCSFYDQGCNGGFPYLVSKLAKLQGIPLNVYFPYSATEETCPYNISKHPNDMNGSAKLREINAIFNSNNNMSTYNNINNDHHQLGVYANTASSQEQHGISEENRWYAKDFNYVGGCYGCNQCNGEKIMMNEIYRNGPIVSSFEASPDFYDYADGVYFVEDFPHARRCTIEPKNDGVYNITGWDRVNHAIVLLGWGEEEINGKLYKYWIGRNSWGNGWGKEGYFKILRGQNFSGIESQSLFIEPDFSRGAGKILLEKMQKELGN
With `CCc1cc(C(=O)N2CCOCC2)c(NC2=NS(=O)(=O)c3ccccc32)s1`, the “% Inhibition @ 10 uM” value is listed as -1.69%. Take `C=C(C)CSc1nc2c(cc1C#N)CCC2`: the “% Inhibition @ 10 uM” value is listed as 6.19%. The same measure for `O=C(C1=C(O)C(=O)N(Cc2cccnc2)C1c1ccc(F)cc1)c1ccc(F)cc1` (centres unmarked): 6.73%. Turning to `O=C1NCC(O)=C1/C=N/CCc1ccc(O)cc1`, the “% Inhibition @ 10 uM” value is reported as -1.06%. With `O=C(Cc1nnc(NC(=O)c2ccco2)s1)NCc1ccccc1` the figure was 17.3%. Regarding `COCCCNC(=O)C1CCN(S(=O)(=O)c2ccc(OC)c(OC)c2)CC1`, the “% Inhibition @ 10 uM” value is -1.92%. With `CCc1cccc(C)c1NC(=O)c1cccnc1` the figure was -6.79%; with `CN(C1CCCCC1)S(=O)(=O)c1ccccc1[N+](=O)[O-]`, -1.62%; with `CCc1ccc(CNC(=O)Nc2cn(CC(C)C)c(=O)c3ccccc23)cc1`, -3.64%. The same measure for `CC(C)(C)C1CCC(N2CCN(c3ccc([N+](=O)[O-])cc3)CC2)CC1` (centres unmarked): 0.472%; for `CC12CN(Cc3ccc(Br)cc3)CC(C)(CN(C(=S)Nc3ccccc3)C1)C2`: -0.807%. Consider `CN(Cc1ccco1)C(=O)c1cc2c(s1)-c1ccccc1OC2`, for which the “% Inhibition @ 10 uM” value is listed as -3.08%. Regarding `CC(NC(=O)c1nc(-c2ccc(Br)o2)no1)c1ccccc1` (centres unmarked), the “% Inhibition @ 10 uM” value was determined as 2.62%. As for `O=C(CCc1ccc(S(=O)(=O)NCc2ccccc2)cc1)N1CCc2ccccc2C1`, the “% Inhibition @ 10 uM” value is on record as -1.61%. The same measure for `CC12CC=CCC1C(=O)N(CCN1C(=O)C3CC=CCC3(C)C1=O)C2=O` (centres unmarked): -3.04%; for `COc1ccc(-c2cc(C(=O)NCc3cccs3)c3ccccc3n2)cc1`: 1.17%; for `COc1ccc(-n2nc3c(N4CCC(C(=O)N5CCCCCC5)CC4)nnc(C)c3c2C)cc1`: 3.42%.

For `CCc1ccc2ncc(S(=O)(=O)c3ccccc3)c(N3CCCC3)c2c1`, the “% Inhibition @ 10 uM” value is listed as -3.69%. The same measure for `CC(C)CN(CCNC(=O)COCc1cc(-c2ccc(F)cc2)on1)CC(C)C`: -6.43%; for `CCCCN(CC)CCNC(=O)c1cc2cc3ccc(OC)cc3nc2o1`: -5.22%. As for `COc1ccc(/C=C(\C#N)c2nc3ccccc3[nH]2)c(OC)c1`, the “% Inhibition @ 10 uM” value was -0.414%. With `COc1ccc(C(=O)c2oc3ccccc3c2NC(=O)CC(C)C)cc1`, the “% Inhibition @ 10 uM” value is 2.31%.

Take `OCCNc1ncnc2[nH]cnc12`: the “% Inhibition @ 10 uM” value was determined as 2.59%. Consider `CCNC(=O)c1ccc(-n2nc(C)cc2-c2ccccc2)cc1`, for which the “% Inhibition @ 10 uM” value is -5.06%.

With `COc1ccccc1Nc1ncc(F)c(Nc2ccccc2OC)n1`, the “% Inhibition @ 10 uM” value is given as -2.2%.

In the case of `CC1=C(C(=O)Nc2ccccc2)C(c2ccccc2)C(C#N)=C(SCC(=O)Nc2ccccc2)N1` (centres unmarked), the “% Inhibition @ 10 uM” value was 2.44%. In the case of `CCN1CCN(CC(O)COC2CC(C)CCC2C(C)C)CC1` (centres unmarked), the “% Inhibition @ 10 uM” value is reported as -2.37%.

As to `COc1ccc(-c2nc(C#N)c(N3CCN(C)CC3)o2)cc1`, the “% Inhibition @ 10 uM” value was -5.1%. On to `N#CC1=C(N)Oc2[nH]nc(-c3ccc(Cl)c(Cl)c3)c2C1c1cccs1` (centres unmarked), for which the “% Inhibition @ 10 uM” value amounted to 1.57%.

As to `Cc1cccn2c(=O)c3cc(S(=O)(=O)c4ccc(Cl)cc4)c(=N)n(C4CCCC4)c3nc12`, the “% Inhibition @ 10 uM” value is 3.21%. The same measure for `CCn1nc(C(=O)Nc2cccc3ccccc23)c(Cl)c1Cl`: -4.67%; for `CC1CC(C)CN(CCCNC(=O)Cc2c(C(=O)O)n(C)c3ccccc23)C1` (centres unmarked): -2.04%.

For the compound `CN1CCN(C2CCCCCC2)CC1`, the “% Inhibition @ 10 uM” value was 0.162%.

As to `CCCCOc1ccc(/C=C2\SC(=O)NC2=O)cc1OC`, the “% Inhibition @ 10 uM” value is 5.44%. The same measure for `N=C1C[N+](CCc2ccccc2)=NO1`: -0.85%; for `Cc1n[nH]c(C)c1CCCCOc1ccc(F)cc1`: -12.4%; for `O=C(Nc1ccc2nn(-c3cccc(Cl)c3)nc2c1)c1ccco1`: 3.05%. Regarding `CC1CCCCC1NC(=O)c1cc(O)nc2ccc(Br)cc12` (centres unmarked), the “% Inhibition @ 10 uM” value is given as -1.79%. `O=C(Cn1c(=O)c2cccn2c2cccnc21)NCCc1ccc(Cl)cc1`: the “% Inhibition @ 10 uM” value was -7.56%.

`CCCOc1ccc(N2C(=O)CC(N(CC34CC5CC(CC(C5)C3)C4)C(C)=O)C2=O)cc1` (centres unmarked): the “% Inhibition @ 10 uM” value stood at 1.93%. With `NS(=O)(=O)c1ccc(CCNC(=O)C(=O)NCC(c2cccnc2)N2CCOCC2)cc1` (centres unmarked) the figure was 1.68%. With `CCCCOc1ccc(/C=C2/C(=O)ON=C2c2ccccc2)cc1` the figure was -4.74%. With `COc1ccc(OC)c(CN(CCN2CCOCC2)C(=O)Nc2cccc(Cl)c2)c1` the figure was 2.01%; with `Nc1nc(COc2ccccc2)nc2sc3c(c12)CCCC3`, 2.29%. `CCN1C(=O)c2cccc3c(NC(=O)c4cccc([N+](=O)[O-])c4)ccc1c23`: the “% Inhibition @ 10 uM” value is recorded as -0.637%. The same measure for `CCc1ccccc1NC(=O)c1ccn(C)n1`: 3.9%; for `O=C1C2CCCN2C(c2ccc(Cl)cc2)N1c1ccccn1` (centres unmarked): 2.9%. The same measure for `CCO/C(O)=C1\C(CC)=NC2=C(C(=O)CC(C)(C)C2)C1c1cccc([N+](=O)[O-])c1` (centres unmarked): 5.54%. The same measure for `COc1cc(NC(=O)c2cnn3c(C(F)F)cc(-c4ccc(C)cc4)nc23)cc(OC)c1OC`: -12.3%; for `CCOc1ccc(C2CC(c3ccc(Cl)cc3)Nc3nnnn32)cc1OC` (centres unmarked): 0.0842%; for `CCOC(=O)N1CCN(C(=O)c2c(C)nn(-c3ccc(F)cc3)c2-n2cccc2)CC1`: 7.65%. With `CCOC(=O)c1cnc2c(-c3ccc(OC)c(OC)c3)c(C)nn2c1N`, the “% Inhibition @ 10 uM” value is reported as -3.48%. The same measure for `NC(=O)C1CCN(c2c(-c3ccccc3)c(=O)c2=O)CC1`: -4.68%; for `Cc1cccc(C2CC(=O)NC3=C2C(=O)CCC3)c1` (centres unmarked): -4.53%.

For the compound `O=C1C(Cl)=C(N2CCCCCC2)C(=O)N1c1cccc(Cl)c1`, the “% Inhibition @ 10 uM” value amounted to 2.08%. As to `CCCCN(C)C(=O)C1CCN(c2nnc(C)c3c(C)n(-c4ccc(Cl)cc4)nc23)CC1`, the “% Inhibition @ 10 uM” value came out at 0.535%.

For the compound `CN(C)c1ccc(/C=C2\C(=O)NC(=S)N(c3cccc(Cl)c3)C2=O)cc1`, the “% Inhibition @ 10 uM” value was -0.267%. As to `Cc1cc(=O)n2nc(N3CCC(C(=O)NCC4CCCO4)CC3)sc2n1` (centres unmarked), the “% Inhibition @ 10 uM” value was determined as 1.38%. For `O=C(NCc1cccnc1)c1ccc(-n2cnc3cccnc32)cc1`, the “% Inhibition @ 10 uM” value was determined as 7.36%. With `CCOc1cccc2cc(C(=O)/C=C/c3ccc(Cl)cc3)c(=O)oc12` the figure was -2.38%. The same measure for `Cc1ccc(C(=O)C2C3C4C(=O)C5(c6ccccc6)C2C5C43)cc1` (centres unmarked): -11.4%; for `COc1ccc(N(CC(=O)N2CCCCC2)S(C)(=O)=O)cc1OC`: -0.564%; for `N#Cc1cccc(NC(=O)COc2ccc(Cl)cc2)c1`: -4.86%. Take `O=C(CS(=O)(=O)Cc1ccccc1)NC(c1ccccc1)c1ccccc1`: the “% Inhibition @ 10 uM” value worked out at 5.48%. As to `CC1CCCC(NC(=O)C2c3ccccc3C(=O)N2Cc2ccccc2Cl)C1C` (centres unmarked), the “% Inhibition @ 10 uM” value is recorded as 10.4%. The same measure for `Cc1cccc(Cn2ccn(Cc3ccccc3)c(=O)c2=O)c1`: 3.17%; for `CC(=O)Nc1ccc(C2=CSC3=NCCN23)cc1Br`: 5.65%; for `COCc1c(C#N)c(O)nc(C)c1[N+](=O)[O-]`: -0.902%. Take `COc1ccc(OC)c(CN2CCN(Cc3ccc(F)cc3)CC2)c1`: the “% Inhibition @ 10 uM” value was -2.84%. For `COc1ccc2ncc3cnccc3c2c1`, the “% Inhibition @ 10 uM” value is recorded as -8.01%.

For the compound `CCC(CO)Nc1ncnc2c1cnn2-c1cc(Cl)ccc1C` (centres unmarked), the “% Inhibition @ 10 uM” value was -5.01%. The same measure for `Oc1ccccc1-c1cc(-c2ccccc2)nc(Cl)n1`: 4.63%; for `CC(C)(C)c1ccc(C(=O)Nc2ccc(S(=O)(=O)N3CCOCC3)cc2)cc1Br`: 0.528%. In the case of `COc1cccc(CN2CCN(Cc3ccccc3OC)CC2)c1`, the “% Inhibition @ 10 uM” value is -3.97%. The same measure for `Cc1ccc(C2CC(C(F)(F)F)n3ncc(C(=O)NCc4ccccc4Cl)c3N2)cc1` (centres unmarked): 10.1%; for `COc1ccc(CN(C(=O)c2ccc(C(C)(C)C)cc2)C2CCS(=O)(=O)C2)cc1` (centres unmarked): 0.561%. As for `CCO/C(O)=C(\C#N)c1nnnn1-c1ccccc1`, the “% Inhibition @ 10 uM” value came out at 2.7%.

As for `O=C(CCNC(=O)Cn1cnc2sc3c(c2c1=O)CCCC3)NCc1ccco1`, the “% Inhibition @ 10 uM” value was -4.23%.

Consider `CCOC(=O)C1=C(CN(C)Cc2ccccc2)NC(=O)NC1c1cccc(OC)c1OC` (centres unmarked), for which the “% Inhibition @ 10 uM” value is reported as -1.3%. With `O=C1c2ccccc2C(=O)N2CC3(c4ccccc4)CN1CC(c1ccccc1)(C2)C3=O` the figure was 0.00706%. With `COc1ccc(C2C(C(=O)c3ccc4c(c3)OCCO4)=C(O)C(=O)N2Cc2ccco2)c(OC)c1` (centres unmarked) the figure was 1.64%; with `OC1CCN(Cc2ccccc2Br)CC1`, 4.81%. The same measure for `O=C1NC(=S)SC1=C1CCCC1`: 4.68%. For the compound `CN(C)CCCN(C(=O)CN1C(=O)CCC1=O)c1nc2ccc(Br)cc2s1`, the “% Inhibition @ 10 uM” value is on record as -1.6%. `O=C(C1=C(N2CCOCC2)C(C(=O)c2ccccc2)CCC1)c1ccccc1` (centres unmarked): the “% Inhibition @ 10 uM” value is on record as -1.65%.

Turning to `COC(=O)c1ccccc1NS(=O)(=O)c1ccc(Cl)cc1`, the “% Inhibition @ 10 uM” value was -0.546%. The same measure for `CC(=O)N[C@H]1[C@H](OCCN2C(=O)c3ccccc3C2=O)O[C@H](CO)[C@@H](O)[C@@H]1O`: -1.74%; for `COc1ccc(OC)c(NC(=O)c2cccc(NC(=O)c3ccccc3C(=O)O)c2)c1`: -0.519%. The same measure for `CC(C)Cn1cc(C(=O)N2CCC(Cc3ccccc3)CC2)c2c3ccccc3n(C)c2c1=O`: -6.45%.

Consider `COc1ccc(S(=O)(=O)Nc2ccccn2)c(C)c1C`, for which the “% Inhibition @ 10 uM” value is 3.36%. With `Cc1cc2c(c(=O)o1)C(c1cccc(C(F)(F)F)c1)C(C#N)=C(N)O2` (centres unmarked), the “% Inhibition @ 10 uM” value amounted to 2.7%.

`O=C(NCc1cccnc1)c1cc2nc(-c3ccccc3)cc(-c3ccccc3)n2n1`: the “% Inhibition @ 10 uM” value was -3.33%.

Take `O=C(CSc1nnnn1-c1ccccc1)NC(C(=O)O)(c1ccccc1)c1ccccc1`: the “% Inhibition @ 10 uM” value is reported as 0.032%. With `Cc1nc(C)c(-c2csc(Nc3cccnc3)n2)s1` the figure was -1.69%; with `Cc1ccc2nc3c(cc(C(=O)NCc4ccccc4)c(=N)n3CCN3CCOCC3)c(=O)n2c1`, 3.6%. `CCc1ccc(C2=CC(c3cccc(C)c3)n3nnnc3N2)cc1` (centres unmarked): the “% Inhibition @ 10 uM” value was -5.43%.

Turning to `Cc1cccc(-c2cc(C(=O)N3CCCC3)c3ccccc3n2)c1`, the “% Inhibition @ 10 uM” value is 1.28%. As for `O=C(CCc1nnc2n(Cc3ccccc3)c(=O)c3ccccc3n12)NCCc1c[nH]c2ccccc12`, the “% Inhibition @ 10 uM” value was -6.07%.
